From the supplement of paper PMC10037445
Over roughly 2,900 compounds, “NF-kB SEAP reporter activity, fold change vs agonist alone” has its median near 0.99; the highest 2% begin near 2.6. Some of the results follow.

Tests used:
RAW-Dual [1] = test: NF-kB SEAP reporter activity, fold change vs agonist alone; cytotoxicity flag (confluency mask): not cytotoxic; higher = enhanced NF-kB activity
In short: (§1)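 Supernatant from RAW-Dual macrophages was read after 20 hours for IRF by QuantiLuc luminescence and for NF-κB by QuantiBlue absorbance at 620 nm. The cells (50,000 cells/well in DMEM, 384-well plates, 37 °C, 5% CO2) had received 50 nL of library stock by pin tool and, 1 h later, a PRR agonist. Reporter activity is expressed relative to agonist-alone wells as fold change, and wells were flagged cytotoxic if IncuCyte confluency was under 70% of agonist controls in both mask sets.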

RAW-Dual [2] = test: NF-kB SEAP reporter activity, fold change vs agonist alone; higher = enhanced NF-kB activity
In short: as §1

RAW-Dual [3] = test: NF-kB SEAP reporter activity, fold change vs agonist alone; cytotoxicity flag (confluency mask): cytotoxic (confluency <70% of control); higher = enhanced NF-kB activity
In short: as §1

[4] = agonist: ODN 1826 (TLR9) 0.5 ug/mL
[5] = agonist: Pam2CSK4 (TLR2/6) 0.1 ug/mL
[6] = agonist: Pam3CSK4 (TLR2/1) 0.1 ug/mL
[7] = library stock concentration (final ~1000-fold dilution): 10 mM, cytotoxicity flag (confluency mask): not cytotoxic, agonist: Imiquimod (TLR7) […]
[8] = library stock concentration (final ~1000-fold dilution): 10 mM, cytotoxicity flag (confluency mask): not cytotoxic, agonist: MPLA (TLR4) […]
[9] = library stock concentration (final ~1000-fold dilution): 10 mM, cytotoxicity flag (confluency mask): cytotoxic (confluency <70% of control), agonist: Imiquimod (TLR7) […]
[10] = library stock concentration (final ~1000-fold dilution): 10 mM, cytotoxicity flag (confluency mask): cytotoxic (confluency <70% of control), agonist: MPLA (TLR4) […]

## Cn1cc(-c2ccc3nnc(C(F)(F)c4ccc5ncccc5c4)n3n2)cn1 (library stock concentration (final ~1000-fold dilution): 10 mM)
RAW-Dual [1]; agonist: LPS (TLR4) 0.1 ug/mL
  NF-kB SEAP reporter activity: 0.887
RAW-Dual [1]; [4]
  NF-kB SEAP reporter activity: 1.06
RAW-Dual [1]; [5]
  NF-kB SEAP reporter activity: 0.93
RAW-Dual [1]; [6]
  NF-kB SEAP reporter activity: 1.08

## Cn1cc(-c2ccc3nnc(C(F)(F)c4ccc5ncccc5c4)n3n2)cn1
RAW-Dual [2]; [7]
  NF-kB SEAP reporter activity: 0.862
RAW-Dual [2]; [8]
  NF-kB SEAP reporter activity: 0.902

## c1ccc2[nH]c(-c3cscn3)nc2c1 (library stock concentration (final ~1000-fold dilution): 10 mM)
RAW-Dual [1]; agonist: LPS (TLR4) 0.1 ug/mL
  NF-kB SEAP reporter activity: 1.09
RAW-Dual [1]; [4]
  NF-kB SEAP reporter activity: 0.886
RAW-Dual [1]; [5]
  NF-kB SEAP reporter activity: 0.984
RAW-Dual [1]; [6]
  NF-kB SEAP reporter activity: 0.968

## c1ccc2[nH]c(-c3cscn3)nc2c1
RAW-Dual [2]; [7]
  NF-kB SEAP reporter activity: 0.818
RAW-Dual [2]; [8]
  NF-kB SEAP reporter activity: 0.832

## Cl.Nc1ccn(C2OC(CO)C(O)C2(F)F)c(=O)n1 (stereo not drawn)
RAW-Dual [2]; library stock concentration (final ~1000-fold dilution): 10 mM water, cytotoxicity flag (confluency mask): cytotoxic (confluency <70% of control), agonist: Imiquimod (TLR7) […]
  NF-kB SEAP reporter activity: 1.47
RAW-Dual [2]; library stock concentration (final ~1000-fold dilution): 10 mM water, cytotoxicity flag (confluency mask): cytotoxic (confluency <70% of control), agonist: MPLA (TLR4) […]
  NF-kB SEAP reporter activity: 1.18

## Cl.Nc1ccn(C2OC(CO)C(O)C2(F)F)c(=O)n1 (stereo not drawn) (library stock concentration (final ~1000-fold dilution): 10 mM water)
RAW-Dual [3]; agonist: LPS (TLR4) 0.1 ug/mL
  NF-kB SEAP reporter activity: 0.979
RAW-Dual [3]; [4]
  NF-kB SEAP reporter activity: 1.56
RAW-Dual [3]; [5]
  NF-kB SEAP reporter activity: 0.996
RAW-Dual [3]; [6]
  NF-kB SEAP reporter activity: 0.954

## CC(NC(CCc1ccccc1)C(=O)O)C(=O)N1CCCC1C(=O)O.O.O (stereo not drawn)
RAW-Dual [2]; [7]
  NF-kB SEAP reporter activity: 0.942
RAW-Dual [2]; [8]
  NF-kB SEAP reporter activity: 1.12

## CC(NC(CCc1ccccc1)C(=O)O)C(=O)N1CCCC1C(=O)O.O.O (stereo not drawn) (library stock concentration (final ~1000-fold dilution): 10 mM)
RAW-Dual [1]; agonist: LPS (TLR4) 0.1 ug/mL
  NF-kB SEAP reporter activity: 0.977
RAW-Dual [1]; [4]
  NF-kB SEAP reporter activity: 1.07
RAW-Dual [1]; [5]
  NF-kB SEAP reporter activity: 1.14
RAW-Dual [1]; [6]
  NF-kB SEAP reporter activity: 1.09

## CCC(CC)CC1(C(=O)Nc2ccccc2SC(=O)C(C)C)CCCCC1
RAW-Dual [2]; [7]
  NF-kB SEAP reporter activity: 0.779
RAW-Dual [2]; [8]
  NF-kB SEAP reporter activity: 0.959

## CCC(CC)CC1(C(=O)Nc2ccccc2SC(=O)C(C)C)CCCCC1 (library stock concentration (final ~1000-fold dilution): 10 mM)
RAW-Dual [1]; agonist: LPS (TLR4) 0.1 ug/mL
  NF-kB SEAP reporter activity: 1.13
RAW-Dual [1]; [4]
  NF-kB SEAP reporter activity: 0.44
RAW-Dual [1]; [5]
  NF-kB SEAP reporter activity: 0.639
RAW-Dual [1]; [6]
  NF-kB SEAP reporter activity: 0.657

## O=C(N/N=C/c1c(O)ccc2ccccc12)c1ccncc1
RAW-Dual [2]; [7]
  NF-kB SEAP reporter activity: 2.57
RAW-Dual [2]; [8]
  NF-kB SEAP reporter activity: 1.75

## O=C(N/N=C/c1c(O)ccc2ccccc12)c1ccncc1 (library stock concentration (final ~1000-fold dilution): 10 mM)
RAW-Dual [1]; agonist: LPS (TLR4) 0.1 ug/mL
  NF-kB SEAP reporter activity: 2.18
RAW-Dual [1]; [4]
  NF-kB SEAP reporter activity: 2
RAW-Dual [1]; [5]
  NF-kB SEAP reporter activity: 1.15
RAW-Dual [1]; [6]
  NF-kB SEAP reporter activity: 1.92

## CNC1CN(c2ccc3c(=O)c(C(=O)O)cn(-c4nccs4)c3n2)CC1OC.Cl (stereo not drawn) (library stock concentration (final ~1000-fold dilution): 2 mM)
RAW-Dual [1]; agonist: LPS (TLR4) 0.1 ug/mL
  NF-kB SEAP reporter activity: 1.11
RAW-Dual [1]; [4]
  NF-kB SEAP reporter activity: 1.56
RAW-Dual [1]; [5]
  NF-kB SEAP reporter activity: 1.32
RAW-Dual [1]; [6]
  NF-kB SEAP reporter activity: 1.18

## CNC1CN(c2ccc3c(=O)c(C(=O)O)cn(-c4nccs4)c3n2)CC1OC.Cl (stereo not drawn)
RAW-Dual [2]; library stock concentration (final ~1000-fold dilution): 2 mM, cytotoxicity flag (confluency mask): not cytotoxic, agonist: Imiquimod (TLR7) […]
  NF-kB SEAP reporter activity: 1.12
RAW-Dual [2]; library stock concentration (final ~1000-fold dilution): 2 mM, cytotoxicity flag (confluency mask): not cytotoxic, agonist: MPLA (TLR4) […]
  NF-kB SEAP reporter activity: 0.968

## COc1cc(OCc2cccc(-c3ccccc3)c2C)cc(OC)c1CN1CCCCC1C(=O)O (stereo not drawn) (library stock concentration (final ~1000-fold dilution): 10 mM)
RAW-Dual [3]; agonist: LPS (TLR4) 0.1 ug/mL
  NF-kB SEAP reporter activity: 1.21
RAW-Dual [3]; [4]
  NF-kB SEAP reporter activity: 0.794
RAW-Dual [3]; [5]
  NF-kB SEAP reporter activity: 1.03
RAW-Dual [3]; [6]
  NF-kB SEAP reporter activity: 1.17

## COc1cc(OCc2cccc(-c3ccccc3)c2C)cc(OC)c1CN1CCCCC1C(=O)O (stereo not drawn)
RAW-Dual [2]; [9]
  NF-kB SEAP reporter activity: 1.22
RAW-Dual [2]; [10]
  NF-kB SEAP reporter activity: 1.03

## Cl.O=C1c2cccc3c2C(CCC3)CN1C1CN2CCC1CC2 (stereo not drawn)
RAW-Dual [2]; library stock concentration (final ~1000-fold dilution): 10 mM water, cytotoxicity flag (confluency mask): not cytotoxic, agonist: Imiquimod (TLR7) […]
  NF-kB SEAP reporter activity: 0.577
RAW-Dual [2]; library stock concentration (final ~1000-fold dilution): 10 mM water, cytotoxicity flag (confluency mask): not cytotoxic, agonist: MPLA (TLR4) […]
  NF-kB SEAP reporter activity: 0.711

## Cl.O=C1c2cccc3c2C(CCC3)CN1C1CN2CCC1CC2 (stereo not drawn) (library stock concentration (final ~1000-fold dilution): 10 mM water)
RAW-Dual [1]; agonist: LPS (TLR4) 0.1 ug/mL
  NF-kB SEAP reporter activity: 0.985
RAW-Dual [1]; [4]
  NF-kB SEAP reporter activity: 0.593
RAW-Dual [1]; [5]
  NF-kB SEAP reporter activity: 0.966
RAW-Dual [1]; [6]
  NF-kB SEAP reporter activity: 0.917

## C=CC(=O)Nc1cc(N2CCN(CC)CC2)ccc1Nc1cc(N(C)C(=O)Nc2c(Cl)c(OC)cc(OC)c2Cl)ncn1 (library stock concentration (final ~1000-fold dilution): 10 mM)
RAW-Dual [1]; agonist: LPS (TLR4) 0.1 ug/mL
  NF-kB SEAP reporter activity: 0.513
RAW-Dual [1]; [4]
  NF-kB SEAP reporter activity: 0.186
RAW-Dual [1]; [5]
  NF-kB SEAP reporter activity: 0.526
RAW-Dual [1]; [6]
  NF-kB SEAP reporter activity: 0.517

## C=CC(=O)Nc1cc(N2CCN(CC)CC2)ccc1Nc1cc(N(C)C(=O)Nc2c(Cl)c(OC)cc(OC)c2Cl)ncn1
RAW-Dual [2]; [7]
  NF-kB SEAP reporter activity: 0.877
RAW-Dual [2]; [8]
  NF-kB SEAP reporter activity: 0.695

## COc1ccc(C2CC(=O)c3c(O)cc(O)cc3O2)cc1O (stereo not drawn)
RAW-Dual [2]; [7]
  NF-kB SEAP reporter activity: 1.28
RAW-Dual [2]; [8]
  NF-kB SEAP reporter activity: 1.11

## COc1ccc(C2CC(=O)c3c(O)cc(O)cc3O2)cc1O (stereo not drawn) (library stock concentration (final ~1000-fold dilution): 10 mM)
RAW-Dual [1]; agonist: LPS (TLR4) 0.1 ug/mL
  NF-kB SEAP reporter activity: 1.12
RAW-Dual [1]; [4]
  NF-kB SEAP reporter activity: 1.2
RAW-Dual [1]; [5]
  NF-kB SEAP reporter activity: 1.26
RAW-Dual [1]; [6]
  NF-kB SEAP reporter activity: 1.33

## CN1CCC(COc2cnc(-c3cccc(Cn4nc(-c5cccc(C#N)c5)ccc4=O)c3)nc2)CC1 (library stock concentration (final ~1000-fold dilution): 10 mM)
RAW-Dual [1]; agonist: LPS (TLR4) 0.1 ug/mL
  NF-kB SEAP reporter activity: 2.42
RAW-Dual [1]; [4]
  NF-kB SEAP reporter activity: 0.544
RAW-Dual [1]; [5]
  NF-kB SEAP reporter activity: 0.955
RAW-Dual [1]; [6]
  NF-kB SEAP reporter activity: 1.41

## CN1CCC(COc2cnc(-c3cccc(Cn4nc(-c5cccc(C#N)c5)ccc4=O)c3)nc2)CC1
RAW-Dual [2]; [7]
  NF-kB SEAP reporter activity: 0.726
RAW-Dual [2]; [8]
  NF-kB SEAP reporter activity: 1.3

## CC(C)c1cc(C(=O)N2Cc3ccc(CN4CCN(C)CC4)cc3C2)c(O)cc1O (library stock concentration (final ~1000-fold dilution): 10 mM)
RAW-Dual [3]; agonist: LPS (TLR4) 0.1 ug/mL
  NF-kB SEAP reporter activity: 0.269
RAW-Dual [3]; [4]
  NF-kB SEAP reporter activity: 0.183
RAW-Dual [3]; [5]
  NF-kB SEAP reporter activity: 0.0845
RAW-Dual [3]; [6]
  NF-kB SEAP reporter activity: 0.133

## CC(C)c1cc(C(=O)N2Cc3ccc(CN4CCN(C)CC4)cc3C2)c(O)cc1O
RAW-Dual [2]; [9]
  NF-kB SEAP reporter activity: 0.284
RAW-Dual [2]; [10]
  NF-kB SEAP reporter activity: 0.588
